Source: the supplement of paper PMC10681739
The full ranking holds about 4,100 sequences; the median of “arbitrary fluorescence units” is about 780, and the highest 2% start at about 22,000. The list shows a part of the results.

Target: T1, ETS1 (UniProt P14921)
T1 sequence: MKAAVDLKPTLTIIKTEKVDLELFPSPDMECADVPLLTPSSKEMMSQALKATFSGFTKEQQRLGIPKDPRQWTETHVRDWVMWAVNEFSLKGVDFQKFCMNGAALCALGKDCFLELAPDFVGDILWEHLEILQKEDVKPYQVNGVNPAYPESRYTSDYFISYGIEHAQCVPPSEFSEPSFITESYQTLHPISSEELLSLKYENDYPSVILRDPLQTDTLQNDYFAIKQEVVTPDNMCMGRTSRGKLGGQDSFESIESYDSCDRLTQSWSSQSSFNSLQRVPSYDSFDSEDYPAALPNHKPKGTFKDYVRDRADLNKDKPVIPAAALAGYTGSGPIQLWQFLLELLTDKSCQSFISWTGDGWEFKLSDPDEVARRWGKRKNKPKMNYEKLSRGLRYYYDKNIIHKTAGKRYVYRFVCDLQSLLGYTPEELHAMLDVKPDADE
Experiment: ETS1 binding intensity (PBM fluorescence), ETS1 alone (arbitrary fluorescence units); higher = stronger binding
Settings: ETS1 concentration 1 nM; RUNX1 concentration 0 nM
Method: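 gcPBM on 36-bp genomic-derived probes (partner site mutated) containing one ETS1 site and no RUNX1 site. Recombinant human ETS1 (1 nM) was incubated alone or with RUNX1 (25 nM) and detected by anti-ETS1 antibody fluorescence. Values are medians over 4 replicate spots (not normalised). The probes sit in constant array flanks that are not printed.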

Row | Sequence | ETS1 binding intensity
1 | CCGGGACCGGAAGAGGGAGCCGAGGTTGCTGGAACT | 13500
2 | ATGGCGAAGCAGGATGCCCTCAACCTACATACGGCA | 808
3 | CTGTGTATTTCTGGGATGCTTGAGGAAATCAAAAAG | 585
4 | GCCCCGGATAGCGTCCTCACCATCCCCTCAGCGCCT | 433
5 | GGAACAGGAAGCGGCAGAAATAGCAGCCACCGTGGC | 6960
6 | AGGGGAAGTGAGAATAGGGTGCCCACCCCCGAATTC | 422
7 | TAGGGGGGCGCGGCGAGCCCCGGCGGGAAACGAAGC | 446
8 | ATCTTAGCCCTCAGCCAAAGCTCTTCCTGGTTGCTC | 473
9 | AGAAGCTGCACCCGGAAATGAAACCTCCAGGACCTC | 4400
10 | AGTCGCTGTTCCCACTCCACAACAGACTCGGAAGCT | 426
11 | CCAGAGCAGGATGTTCTGCTGTCGCTAGATAAGCCC | 1940
12 | TGACGTCATCGCGCAGCGCCGGAAGCGGTGAGGCAC | 2220
13 | TGGAAGAGGGCAGGAAGTGTTGTGCTCACTCCCACC | 2270
14 | GGCGGCTGTGAGCGCAAAACCCAAAACTTCCGATGG | 452
15 | GGAGCCTGGCTGTAGGTGAGTGCTTCCTGAAGGGGT | 392
16 | GCAGGAAGACTAACACAAAACCATCAAGCCACTCTG | 453
17 | GAAGGAGCTAGCCACGGACCGGAAACCCCCGAGGTG | 3010
18 | CTTGTCCCTTGTAGTTTTTTGCATTTCCTGTTCCCT | 2540
19 | TGGTTTCCGGGCTGGGGTTAGAATAGGCTACAAGGT | 10900
20 | CTAAGAATCATCCTGTGTAACAACACCCTCAGTTAG | 982
21 | ACTTACGCGGAGCGCTAATGTGAGGAAGCCTCCCGC | 367
22 | GATGCACGTCCGCGGGAGGCAAGCGCTTGCCCTGGG | 370
23 | ATGTCTTCCTGTACAGGAACTGGGTCCCAGCCCCAG | 8210
24 | CGGAGGGAAACAGCACCCCTGCCTCTTTCCTGGGCC | 382
25 | GGGCGCGGGCTTTCCTGTCGCCGAAGCGTGTGAGTC | 1910
26 | GAGTCCTCGCCGTAAACCCGAGGAGCAGGATGTGGA | 414
27 | CAGGCACACATCCGGGAGCGGCCTGCGCCGCGAGGC | 9790

Row | Sequence | ETS1 binding intensity
28 | GGAGGAGACCTCGGCGTTAGCGTGACCCGGATGCGC | 395
29 | GCGAAGTGTGTGAGCAACGCGGCCGGATCCTGGAGT | 380
30 | TCGGGAAGTGGCATGCTGACTCACCTGTAGCTTGTC | 366
31 | CAACATGGTTGTGAGGGAGTGAGGAAATGGTGATTC | 478
32 | CCAGAATGCAGGAAGTGCTGTGCTTTGACTTTGTTT | 2750
33 | GTGTTTTCCTGGTGGCCCGGCCGTGCCTGAGCTTTC | 1360
34 | TGAAGTTCTGGGACGAAGCCAGGAAGTCAGCCCAGA | 652
35 | ACTCCACCTACCCTCAAAACGCACTTCCTCAGAAGC | 659
36 | GCCTGTTTGTTCCGCCCCCGCGGCAAGCGCTGCTCG | 620
37 | TGGGCTGGGCCGGAACCTCACGGACCTCACCCAACC | 431
38 | CTGATTGGGGTTTTGATTTGCATTTCCCTGATGATT | 538
39 | GAGAGAGGCAGGAAGTGTTGTGCTTATTGTTTGAGC | 3390
40 | CATCAGTTTATGGCTGCCGAGTGCTTCCTGGGAATT | 544
41 | TGGCAAGCACACATCCACATCCACTTCCTGCTGAAC | 4880
42 | CGGAGGCTCACCGTGAAGCCTCCTGGGAAATGTAGT | 340
43 | AAGAACTCACATCAAAGGCTCCCAGGAAGCGCGAGC | 380
44 | TTGCCGTAGCCACTTTATCCACTTCCTTTTTCACGA | 1280
45 | CCGAAGCCTGCGATTTCATGTGGGAGGAAGCGGCCT | 399
46 | TTCTCCACTTCCTTCTTTACCTCACCTACCAGATAA | 6150
47 | GGGCTGGGGCCGAAGCGGGGCTTCCGGCCCCCCAGG | 4720
48 | ATGTAAACAAGGATGTGAGTTCTCCGGCTACACTCT | 625
49 | AAAACGCGGAAATACGGAGGCGGCGGCCCTCGGGCA | 1250
50 | CTAACAGCAGGAAGTGCTTGGTGCTTTAGCACCTCA | 3210
51 | CCGAGGTATCTCAGCAGCCGCTGGGCATCCGGAGGA | 463
52 | GCCCTGAGGGCAGGAGAAGAGTCCGGAAATGGAAAT | 2200
53 | CACGTCCGTCTCACCTGACCCAGAGGCACCCCGAGC | 3730
54 | AGGGACCCGGATGTCTGGTCGGCGGCTGCTCCTCTA | 2460

Row | Sequence | ETS1 binding intensity
55 | TAGCCGTACGGAAATGTTTGTTGTTCTCTGCATCTA | 528
56 | TTGGGGTAGGGAAATCCACTTACCCCTTCCTCATGT | 377
57 | AAGTCCAACAATGCACTCCTCCACAGGAAGTTCCCA | 782
58 | CCATTGGCAAGCGCGCTGCGCCAACTTCCGGGTTGT | 2960
59 | CAACGCTTGCCGAGCGCCAGCAGGAAGTGGTGGGCG | 1120
60 | CAGTGCTTAGGCAGAGGAGGACATACTTCCTGTAAT | 2200
61 | CATCGAAGAGCTTCGGCACCACTTCCGAGTGGAGCA | 754
62 | CAGGAGAACCTACAATGCACCGAAACTTCCGCCCCC | 1180
63 | AAAGCATTTCCTGCCTTGACTTAACTACAAGACAGG | 25700
64 | CATGGAGTGTCTGGTGAACTTCCCCATCCCTCCTGG | 365
65 | ACCGTGGTGTTCCGCCCAATGCCTTCTGGGAGTTGT | 448
66 | GACCCATTTCCTGGCTCAGGAGCCCTCAGCCCTGGG | 7400
67 | TGGAAGAGCCCCACGACATGTGCTTCCTGCGTGCTG | 596
68 | GAATGTCTGTGCTCACATACTCAGCTTCCTGTTTAT | 1370
69 | GAGGCCGTACGCGCACCGAGCTTCCGTCCTGCGCTC | 772
70 | ATTTTTCCTTCCTTCTCCCGTCCCCTCAGAGTGCAA | 1550
71 | AGCTGCAGCGGATGGCGGACGACCCCAACGCACAGT | 450
72 | GTGGCTTCCTGCCATTGACAATCGCGGGATGGCTTT | 11100
73 | CGCCGGTCCCATATCCTTTCTGCGAGGTGAGCAGCA | 2440
74 | GTGGAAAGGAAATGTGTCATCTGTAGTTTGGTTTTA | 909
75 | GCCCACCCCCGAATTCTCGCCACTTCCTCCCCGGGA | 1400
76 | GCCAACTACAACATGAGGAATACATTTCCTCTTCAG | 647
77 | GTTCAGCAGCTACAACAAGAGAGGATGTGTAGTGTT | 436
78 | GACTTTTACGGAAATAGCAGTCCAAAAGCGCGTCTA | 1850
79 | GCACGGCGGAATTTCAAATGGGGTTTTGTAGTTTCT | 348
80 | CCCGGAGGACGTCCGGCCTCTGTGAGCCGCCACCTT | 4500
